Source: publication PMC3242641 (European journal of medicinal chemistry, 2011)

Assays:
M184V RT [1] = details: M184V vs WT RT, line with footnote e; cited from earlier work
M184V RT [2] = assay: biochemical; assay type: biochemical; details: M184V vs WT RT
M184V RT [3] = target: M184V RT (Human immunodeficiency virus type 1 group M subtype B, UniProt P04585, M771V); assay: biochemical; assay type: biochemical

| Structure (SMILES) | Resistance (n-fold) = selectivity M184V/selectivity WT (M184V RT [2]) [n-fold] | Kd (M184V RT [3]) [µM] | also measured |
| --- | --- | --- | --- |
| Nc1ccn([C@@H]2CS[C@H](COP(=O)(O)OP(=O)(O)OP(=O)(O)O)O2)c(=O)n1 [Compound 3TC-TP] | – | – | Resistance (n-fold) = selectivity M184V/selectivity WT (M184V RT [1]): 128 n-fold |
| [N-]=[N+]=N[C@@H]1C[C@@H](n2cnc3c(N)nc(N)nc32)O[C@H]1COP(=O)(O)OP(=O)(O)OP(=O)(O)O [Compound 20-TP] | 5.4 | – | – |
| [N-]=[N+]=N[C@@H]1C[C@@H](n2cnc3c(N)ncnc32)O[C@H]1COP(=O)(O)OP(=O)(O)OP(=O)(O)O [L-AZA-TP] | 3 | – | – |
| [N-]=[N+]=N[C@@H]1C[C@@H](n2cnc3c(O)nc(N)nc32)O[C@H]1COP(=O)(O)OP(=O)(O)OP(=O)(O)O [L-AZG-TP] | – | > 60 | – |
| Cc1cn([C@H]2C[C@H](N=[N+]=[N-])[C@@H](CO[P@](=O)(O)O[P@](=O)(O)OP(=O)(O)O)O2)c(=O)[nH]c1=O [L-AZT-TP] | – | > 60 | – |

Where two headings read alike, the source gives them in different places.
